Hit rate of the full screen: of about 310,000 compounds, about 14,000 (4.5%) showed an effect of 50% or more. The effect is printed as a negative number. Some of the results follow.

Data on 84 molecules can be found in article PMC4336329 (PLoS ONE, 2015).
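Further: peak tail current of the secondary pulse compared with the same well before compound.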

This test deals with human ether-à-go-go-related gene (hERG) potassium channel (human, UniProt Q12809). The test can be described thus: primary screen, population patch clamp on CHO cells stably expressing hERG.
Chain of human ether-à-go-go-related gene (hERG) potassium channel (Q12809 whole entry, looked up): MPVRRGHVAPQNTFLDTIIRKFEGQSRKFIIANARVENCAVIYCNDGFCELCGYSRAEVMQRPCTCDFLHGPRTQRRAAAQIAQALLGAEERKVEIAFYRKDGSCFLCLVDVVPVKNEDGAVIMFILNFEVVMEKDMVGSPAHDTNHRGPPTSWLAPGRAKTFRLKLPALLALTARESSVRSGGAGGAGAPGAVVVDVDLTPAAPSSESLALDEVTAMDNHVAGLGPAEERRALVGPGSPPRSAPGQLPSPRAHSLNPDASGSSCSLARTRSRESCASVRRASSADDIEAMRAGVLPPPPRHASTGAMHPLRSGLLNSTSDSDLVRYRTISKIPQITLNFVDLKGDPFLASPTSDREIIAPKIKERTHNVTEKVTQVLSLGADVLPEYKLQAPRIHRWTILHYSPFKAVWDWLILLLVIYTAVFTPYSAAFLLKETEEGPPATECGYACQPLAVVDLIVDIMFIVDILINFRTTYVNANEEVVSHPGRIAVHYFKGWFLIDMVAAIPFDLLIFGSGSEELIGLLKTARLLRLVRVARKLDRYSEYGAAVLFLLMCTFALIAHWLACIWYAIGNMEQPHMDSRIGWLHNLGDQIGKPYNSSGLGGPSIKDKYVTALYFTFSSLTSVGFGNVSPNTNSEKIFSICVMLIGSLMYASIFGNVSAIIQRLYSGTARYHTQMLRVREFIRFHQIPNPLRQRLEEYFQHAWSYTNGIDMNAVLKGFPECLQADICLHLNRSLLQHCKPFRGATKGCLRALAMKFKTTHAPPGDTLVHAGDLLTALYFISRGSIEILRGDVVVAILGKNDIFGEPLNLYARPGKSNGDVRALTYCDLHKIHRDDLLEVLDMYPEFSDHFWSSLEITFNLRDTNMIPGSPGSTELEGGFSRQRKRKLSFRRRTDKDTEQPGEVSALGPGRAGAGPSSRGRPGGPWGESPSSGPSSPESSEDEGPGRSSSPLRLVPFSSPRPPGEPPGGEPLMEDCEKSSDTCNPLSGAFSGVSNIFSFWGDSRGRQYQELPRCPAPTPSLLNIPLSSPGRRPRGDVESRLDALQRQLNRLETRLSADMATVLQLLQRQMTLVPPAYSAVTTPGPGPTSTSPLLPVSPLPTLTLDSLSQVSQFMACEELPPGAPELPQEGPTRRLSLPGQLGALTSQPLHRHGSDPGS
Turning to `Cc1ccc([N+](=O)[O-])c(OCCCN2C(=O)NC(C)(C)C2=O)c1`, the “hERG current change (%, negative = inhibition) at 10uM” value is reported as 19.4%.

Consider `Cc1c(C(=O)NCCSCc2cccc(C(F)(F)F)c2)cnn1-c1ccc(Cl)cc1`, for which the “hERG current change (%, negative = inhibition) at 10uM” value is -30.6%. Under `CCOC(=O)c1cn(CC)c2cc(N3CCSCC3)c(F)cc2c1=O` stands -38.8%. Under `Cc1ccc(S(=O)(=O)N2CN(Cc3ccco3)c3nc4ccccc4nc32)cc1` stands -11%. As to `Cc1ccc(C(=O)Nc2ccc(N3CCN(S(C)(=O)=O)CC3)cc2)cc1C`, the “hERG current change (%, negative = inhibition) at 10uM” value is 4.63%. `Cc1cc(C(=O)COC(=O)c2nccnc2N)c(C)n1C`: the “hERG current change (%, negative = inhibition) at 10uM” value was determined as 26.9%. The result for `CC1(C(=O)O)CCC(C(=O)NCCc2ccccc2)C1(C)C` (stereo not drawn) reads 15%; that for `N#Cc1ccccc1OCc1cccc(S(=O)(=O)N2CCOCC2)c1`, -38.9%; that for `FC(F)(F)c1nc2ccccc2[nH]1`, 4.47%. Under `COc1ccc(C(O)(C(C)C)C(CN2CCOCC2)c2ccccc2)cc1.Cl` (stereo not drawn) stands -28%. The result for `COc1ccc(CCn2c(=N)c(S(=O)(=O)c3ccccc3)cc3c(=O)n4ccccc4nc32)cc1` reads 10.9%; that for `COc1ccc(OC)c(NC(=O)CSc2nc3c(c(=O)n(C)c(=O)n3C)n2C)c1`, -7.66%. As to `Cc1ccc2nc(NC(=O)CN3C(=O)NC4(CCCCC4)C3=O)sc2c1`, the “hERG current change (%, negative = inhibition) at 10uM” value is given as -2.4%. The result for `COc1ccc(C)cc1Nc1nc(C)nc2c1oc1ccccc12.Cl` reads 33.4%. The result for `CN(c1ccc(C(=O)Nc2ccccn2)cc1)S(=O)(=O)c1ccccc1` reads 8.63%; that for `CCOC(=O)c1sc(NC(=O)CCC(=O)O)nc1C`, 30.4%. Regarding `CC(Sc1ccc(Cl)cc1)C(=O)Nc1ccc(S(=O)(=O)N2CCOCC2)cc1` (stereo not drawn), the “hERG current change (%, negative = inhibition) at 10uM” value was -22.7%. On to `COC(=O)C1=C(c2cc3ccccc3s2)C[C@@H]2CC[C@H]1N2C(=O)NC(C)C`, for which the “hERG current change (%, negative = inhibition) at 10uM” value is recorded as -20.1%. Consider `Cc1ccc(-n2ncc3c2CCCC3NC(=O)CCC2=NNC(=O)CC2)cc1C` (stereo not drawn), for which the “hERG current change (%, negative = inhibition) at 10uM” value stood at 0.4%. Under `COCCCNC(=O)c1ccc2c(c1)CCN2S(C)(=O)=O` stands -38.5%. Take `CC(CC1C(C#N)=C(N)OC2=C1C(=O)CCC2)c1ccccc1` (stereo not drawn): the “hERG current change (%, negative = inhibition) at 10uM” value is listed as -10.6%. The result for `CCOC(=O)C1CCCN(C(=O)c2cc(CN3C(=O)c4ccccc4C3=O)ccc2OC)C1` (stereo not drawn) reads -9.55%; that for `O=C(COC(=O)/C=C/c1ccc([N+](=O)[O-])cc1)NC1CCCCC1`, -8.72%. Under `Cc1cc(C)c2nc(SCC(=O)NCCN3C(=O)CSC3=O)cc(C)c2c1` stands -0.927%; under `CC1CCN(C(=O)COC(=O)c2ccc(=O)n(Cc3ccccc3)n2)CC1`, -0.635%; under `COc1ccccc1N1C(=NC(=O)COc2ccccc2)SC2CS(=O)(=O)CC21` (stereo not drawn), 15%. The result for `COc1cccc(NC(=O)CN(C)C(=O)c2c(C)nn(Cc3ccc(C)cc3)c2Cl)c1` reads -7.18%; that for `COc1ccc(-c2cc3c(=O)n(CC(=O)Nc4cccc(Cl)c4)ncn3n2)cc1`, 15.8%; that for `CCc1ccc(NC(=O)C(=O)NCC2CCCN2S(=O)(=O)c2cccs2)cc1` (stereo not drawn), -32.2%.

`COc1ccc(CNC(=O)c2sc(=S)n(-c3ccccc3)c2N)cc1`: the “hERG current change (%, negative = inhibition) at 10uM” value is 4.31%. As to `Cc1[nH]c2ccccc2c1C(=O)COC(=O)C1CC(O)CN1S(=O)(=O)c1ccc(Cl)cc1` (stereo not drawn), the “hERG current change (%, negative = inhibition) at 10uM” value is recorded as -0.342%.

As for `COc1cccc(C(=O)N/N=C(\C)c2ccc(NC(=O)Cc3ccccc3)cc2)c1OC`, the “hERG current change (%, negative = inhibition) at 10uM” value turned out to be 22.1%. Under `CCN(CC)C(c1ccc(F)cc1)c1nnnn1CC1CCCO1.Cl` (stereo not drawn) stands 8.93%; under `Cc1ccc2oc(C(=O)N(Cc3ccc(N(C)C)cc3)C3CCS(=O)(=O)C3)c(C)c2c1` (stereo not drawn), -0.0732%; under `Cn1c(=O)c2c(ncn2CC(=O)N/N=C/C=C\c2ccccc2[N+](=O)[O-])n(C)c1=O`, -22.1%. The result for `COc1ccc(S(=O)(=O)N/N=C(/C)c2ccncc2)c(OC)c1` reads -10.7%; that for `CCOc1ccc(OCCC(=O)OCC(=O)N2CCN(c3ccc(OC)cc3)CC2)cc1`, 6.92%.

Regarding `CCC1CCCCN1C(=S)NC(=O)c1ccc([N+](=O)[O-])cc1` (stereo not drawn), the “hERG current change (%, negative = inhibition) at 10uM” value is recorded as -41.7%. For the molecule `COc1ccc(OC)c(N2C(=O)NC(=O)/C(=C/c3ccc([N+](=O)[O-])s3)C2=O)c1`, the “hERG current change (%, negative = inhibition) at 10uM” value is reported as 12.9%. The result for `Nn1cnnc1SCC(=O)N1CCc2ccccc2C1` reads -12.8%. The result for `CCN(CC)C(=O)c1sc(NC(=O)C(C)C)c(C#N)c1C` reads 7.98%. The result for `COc1ccc(C)cc1N(CC(=O)NC1CCCC1)C(=O)CCC(=O)Nc1nc(C)cs1` reads -19%; that for `O=S(=O)(Nc1ccc(Cl)cn1)c1ccccc1`, 33.6%; that for `CCCc1nc(-c2ccccc2)c(-c2ccc(OC)c(OC)c2)c(=O)[nH]1`, 8.35%. As to `Cn1c(=O)cc(OCCCC(=O)NCc2ccc3c(c2)OCO3)c2ccccc21`, the “hERG current change (%, negative = inhibition) at 10uM” value is on record as -22.2%.

Turning to `CCc1nnc(NC(=O)CCS(=O)(=O)Cc2ccccc2)s1`, the “hERG current change (%, negative = inhibition) at 10uM” value is on record as 14.7%. In the case of `CC(NC(=S)Nc1cccc(F)c1)C(c1cccs1)N1CCOCC1` (stereo not drawn), the “hERG current change (%, negative = inhibition) at 10uM” value is on record as -7.64%. The result for `COc1ccc(C2=NN3C(=O)c4c(ccc(OC)c4OC)C3C2)cc1` (stereo not drawn) reads -2.8%; that for `O=Nc1[nH]c(=O)c(/C=C(\O)c2ccccc2)nc1NO`, -2.19%. As for `CC(=O)C1=C(O)C(=O)N(Cc2ccccc2)C1c1ccc([N+](=O)[O-])cc1` (stereo not drawn), the “hERG current change (%, negative = inhibition) at 10uM” value is reported as 13.7%. Under `CCOC(=O)C1=C(C)N(C)C(=O)NC1c1cccc(O)c1` (stereo not drawn) stands 13.7%; under `Cc1nc2ccccn2c1C(=O)N/N=C/c1ccc(F)cc1`, 5.8%. Under `COc1cccc(/C=N/NC(=O)CC2C(=O)NN=C2C)c1O` (stereo not drawn) stands -19.6%; under `CN(C(=O)CSc1nnc(N)s1)c1c(N)n(Cc2ccccc2)c(=O)[nH]c1=O`, 7.34%; under `C[C@@H]1CC[C@]2(O[C@H](CCO)C[C@H](O)[C@H]2O)O1`, 3.14%. Under `CCOC(=O)c1ccccc1NC(=O)c1cccc([N+](=O)[O-])c1` stands 12.5%. In the case of `CC1CN(c2ccc([N+](=O)[O-])nc2)CC(C)O1` (stereo not drawn), the “hERG current change (%, negative = inhibition) at 10uM” value was -21.6%.

In the case of `COc1ccc(OCCCCn2c(CO)nc3ccccc32)cc1`, the “hERG current change (%, negative = inhibition) at 10uM” value is reported as -24.5%.

As for `O=C(O)CCCCCNC(=O)/C(=C\c1ccco1)NC(=O)c1ccco1`, the “hERG current change (%, negative = inhibition) at 10uM” value is on record as 11.7%.

Turning to `COc1ccc(CCNC(=O)CN2C(=O)COc3ccc(S(=O)(=O)N4CCCC4)cc32)cc1OC`, the “hERG current change (%, negative = inhibition) at 10uM” value is 12.7%.

In the case of `CC1(C)Cc2c(sc3c2c(=N)n(Cc2ccco2)c(=O)n3CC(=O)Nc2ccccc2)CO1`, the “hERG current change (%, negative = inhibition) at 10uM” value is -1.1%.

Consider `CN1CCN(S(=O)(=O)c2ccc(=O)[nH]c2)CC1`, for which the “hERG current change (%, negative = inhibition) at 10uM” value is 7.85%. Turning to `CCCCCn1c(=O)c(C(=O)Nc2cccc(C)n2)c(O)c2ccccc21`, the “hERG current change (%, negative = inhibition) at 10uM” value turned out to be 26.4%. The result for `CCN1CCN(C(=O)/C=C/c2cccc(Cl)c2)CC1` reads -18.7%; that for `Cc1c(NC(=O)Nc2ccc(C(C)C)cc2)c(=O)n(-c2ccccc2)n1C`, 8.78%; that for `Cc1ccc(C(=O)NNC(=O)c2ccc(S(=O)(=O)N3CCOCC3)cc2)cc1`, 7.6%. Under `Cc1ccc(-c2nc3ccccc3nc2-c2ccccc2)cc1` stands 23.7%.

As to `CCOC(=O)/C(=N\Nc1ccccc1Cl)N1CCN(Cc2ccccc2)CC1`, the “hERG current change (%, negative = inhibition) at 10uM” value was -7.16%. The result for `O=C1CCC2(CC1)NC(=O)N(c1ccccc1)N2` reads 15.9%. Under `CSc1ccccc1NC(=O)c1cc(-c2cccs2)on1` stands 14.5%. The result for `Cc1ccc2sc(N3CCN(C(=O)c4ccc([N+](=O)[O-])o4)CC3)nc2c1C` reads 3.89%; that for `Cc1cccc(N(CC(=O)NCc2ccc3c(c2)OCO3)C(=O)CCC(=O)Nc2ccccn2)c1`, 5.31%. Regarding `CC(C)(O)CC[C@H](OC(=O)c1ccccc1)[C@](C)(O)[C@H]1CC[C@@]2(O)C3=CC(=O)[C@@H]4C[C@@H](O)[C@H](O)C[C@]4(C)C3CC[C@]12C` (stereo partly drawn), the “hERG current change (%, negative = inhibition) at 10uM” value was found to be 16.2%. As for `CCCCNC(=O)Cn1c(=O)c2c(ncn2CC)n(Cc2ccccc2)c1=O`, the “hERG current change (%, negative = inhibition) at 10uM” value was found to be 9.58%.

With `CC(C)CN(CC(C)C)C(=O)Cc1coc2ccc3ccccc3c12`, the “hERG current change (%, negative = inhibition) at 10uM” value is -1.97%. Under `O=C(C1CCC(=O)N(C2CCCCCC2)C1)N1CCN(c2ccccc2Cl)CC1` (stereo not drawn) stands -42.9%; under `CC(=O)NS(=O)(=O)c1cccnc1Nc1cccc(Cl)c1`, 5.82%. On to `COC(=O)[C@H]1C[C@@H]1[C@H](NC(=O)c1ccccc1)c1ccccc1`, for which the “hERG current change (%, negative = inhibition) at 10uM” value stood at 2.26%. The result for `Cc1cc(NC(=O)CSc2nc(-c3ccco3)cc(C(F)(F)F)n2)n(-c2ccccc2)n1` reads 11.6%. The result for `CCOc1ccccc1CNC(=O)c1ccc(Sc2ccc(Cl)cc2)c(NC(C)=O)c1` reads -19.4%.

For `O=C(O)CCSc1nc2ccccc2n1-c1ccccc1`, the “hERG current change (%, negative = inhibition) at 10uM” value worked out at 12.5%. The result for `Cc1ccc(-c2cc(-c3ccc(C)cc3)[n+](-c3ccccc3)c(-c3ccc(C)cc3)c2)cc1.[O-][Cl+3]([O-])([O-])[O-]` reads -80.2%. Under `Cc1cc(C)nc(SCCC(=O)Nc2ccccc2)n1` stands -6.4%. The result for `Cc1ccc(CNC(=O)CCS(=O)(=O)c2ccc(C)cc2)cc1` reads -17.6%.
